Assay results as given in PMC12820563.
Some of the results follow. The list includes weakly bound sequences.

Target: T1, MBP-FoxP3dN (UniProt Q99JB6)
T1 sequence: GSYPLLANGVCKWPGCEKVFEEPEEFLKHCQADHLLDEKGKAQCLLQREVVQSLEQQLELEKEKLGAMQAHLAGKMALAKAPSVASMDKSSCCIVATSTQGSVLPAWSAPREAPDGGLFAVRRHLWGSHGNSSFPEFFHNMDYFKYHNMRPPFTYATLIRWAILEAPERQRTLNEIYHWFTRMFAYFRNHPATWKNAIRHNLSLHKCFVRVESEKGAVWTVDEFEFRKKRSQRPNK
Assay: PD-seq (MBP pull-down with sequencing)
Conditions: 20 mM Tris-HCl pH 7.5, 100 mM NaCl, 1.5 mM MgCl2, 0.4 uM protein, 0.1 uM dsDNA library, 30 min, room temperature, amylose pull-down; high values mean tight binding; double strand, one strand shown

Row | Sequence | binding signal (RPM ratio (pull-down/input))
1 | GATGATTGTTCTCCCAGCTGATGAATTTGCCATTTCGAGTAAACAAATTTTCCTAATCTTTCTGTTCAAGCGCCATCTAC | 2.91
2 | GATGATTGTTCTCCCAGCTGATGAATTAGTCAGTTCGAGTAAACAAATTTTCCTAATCTTTCTGTTCAAGCGCCATCTAC | 0.678
3 | GATGATTGTTCTCCCAGCTGATGAATTCTCACAGTCGAGTAAACAAATTTTCCTAATCTTTCTGTTCAAGCGCCATCTAC | 0.207
4 | GATGATTGTTCTCCCAGCTGATGAATTAACTGGCTCGAGTAAACAAATTTTCCTAATCTTTCTGTTCAAGCGCCATCTAC | 0.213
5 | GATGATTGTTCTCCCAGCTGATGAATTAGGTCCATCGAGTAAACAAATTTTCCTAATCTTTCTGTTCAAGCGCCATCTAC | 0.371
6 | GATGATTGTTCTCCCAGCTGATGAATTTAGAATTTCGAGTAAACAAATTTTCCTAATCTTTCTGTTCAAGCGCCATCTAC | 1.26
7 | GATGATTGTTCTCCCAGCTGATGAATTCCTAAGCTCGAGTAAACAAATTTTCCTAATCTTTCTGTTCAAGCGCCATCTAC | 0.213
8 | GATGATTGTTCTCCCAGCTGATGAATTTGGTAACTCGAGTAAACAAATTTTCCTAATCTTTCTGTTCAAGCGCCATCTAC | 1.38
9 | GATGATTGTTCTCCCAGCTGATGAATTCCTACGGTCGAGTAAACAAATTTTCCTAATCTTTCTGTTCAAGCGCCATCTAC | 0.213
10 | GATGATTGTTCTCCCAGCTGATGAATTTGATGATTCGAGTAAACAAATTTTCCTAATCTTTCTGTTCAAGCGCCATCTAC | 3.46
11 | GATGATTGTTCTCCCAGCTGATGAATTTCCGAAATCGAGTAAACAAATTTTCCTAATCTTTCTGTTCAAGCGCCATCTAC | 0.293
12 | GATGATTGTTCTCCCAGCTGATGAATTCAACCGATCGAGTAAACAAATTTTCCTAATCTTTCTGTTCAAGCGCCATCTAC | 0.253
13 | GATGATTGTTCTCCCAGCTGATGAATTGGACGTATCGAGTAAACAAATTTTCCTAATCTTTCTGTTCAAGCGCCATCTAC | 0.508
14 | GATGATTGTTCTCCCAGCTGATGAATTACAGTCCTCGAGTAAACAAATTTTCCTAATCTTTCTGTTCAAGCGCCATCTAC | 0.525
15 | GATGATTGTTCTCCCAGCTGATGAATTCCTCTTTTCGAGTAAACAAATTTTCCTAATCTTTCTGTTCAAGCGCCATCTAC | 0.248
16 | GATGATTGTTCTCCCAGCTGATGAATTTGGCTACTCGAGTAAACAAATTTTCCTAATCTTTCTGTTCAAGCGCCATCTAC | 1.71

Row | Sequence | binding signal (RPM ratio (pull-down/input))
17 | GATGATTGTTCTCCCAGCTGATGAATTTGATCCTTCGAGTAAACAAATTTTCCTAATCTTTCTGTTCAAGCGCCATCTAC | 0.39
18 | GATGATTGTTCTCCCAGCTGATGAATTTGTTCGATCGAGTAAACAAATTTTCCTAATCTTTCTGTTCAAGCGCCATCTAC | 0.601
19 | GATGATTGTTCTCCCAGCTGATGAATTAAGATTGTCGAGTAAACAAATTTTCCTAATCTTTCTGTTCAAGCGCCATCTAC | 1.03
20 | GATGATTGTTCTCCCAGCTGATGAATTTAGGTTGTCGAGTAAACAAATTTTCCTAATCTTTCTGTTCAAGCGCCATCTAC | 1.05
21 | GATGATTGTTCTCCCAGCTGATGAATTGACCCGGTCGAGTAAACAAATTTTCCTAATCTTTCTGTTCAAGCGCCATCTAC | 0.19
22 | GATGATTGTTCTCCCAGCTGATGAATTCGATTTCTCGAGTAAACAAATTTTCCTAATCTTTCTGTTCAAGCGCCATCTAC | 1.83
23 | GATGATTGTTCTCCCAGCTGATGAATTTGACAAGTCGAGTAAACAAATTTTCCTAATCTTTCTGTTCAAGCGCCATCTAC | 0.261
24 | GATGATTGTTCTCCCAGCTGATGAATTTTCTTCGTCGAGTAAACAAATTTTCCTAATCTTTCTGTTCAAGCGCCATCTAC | 0.27
25 | GATGATTGTTCTCCCAGCTGATGAATTTGGATGATCGAGTAAACAAATTTTCCTAATCTTTCTGTTCAAGCGCCATCTAC | 0.576
26 | GATGATTGTTCTCCCAGCTGATGAATTGGTTCTTTCGAGTAAACAAATTTTCCTAATCTTTCTGTTCAAGCGCCATCTAC | 0.363
27 | GATGATTGTTCTCCCAGCTGATGAATTGGTGTTCTCGAGTAAACAAATTTTCCTAATCTTTCTGTTCAAGCGCCATCTAC | 2.16
28 | GATGATTGTTCTCCCAGCTGATGAATTCCCAACATCGAGTAAACAAATTTTCCTAATCTTTCTGTTCAAGCGCCATCTAC | 0.727
29 | GATGATTGTTCTCCCAGCTGATGAATTATTTGCATCGAGTAAACAAATTTTCCTAATCTTTCTGTTCAAGCGCCATCTAC | 2.47
30 | GATGATTGTTCTCCCAGCTGATGAATTAGAACGGTCGAGTAAACAAATTTTCCTAATCTTTCTGTTCAAGCGCCATCTAC | 0.227
31 | GATGATTGTTCTCCCAGCTGATGAATTGTCCGAATCGAGTAAACAAATTTTCCTAATCTTTCTGTTCAAGCGCCATCTAC | 0.272
